No constants are given. Whether binding was seen depends on the method and setting. For some of these results: In cells and extracts the contact can be indirect. Some entries that bind do so weakly or less than the wild type. For some of these results: Sequences can lack the tags named with a protein.
Legend:
[1] = target: GST-VAMP7 full-length wild-type cytoplasmic domain (not stated (human or mouse cDNA cloned)) (UniProt P51809); assay: pull-down; assembly of the SNARE complex: GST-VAMP7(1-188), His6syntaxin4 (201-266) and SNAP23 (1-210) at 1:4:4, 4°C, 48 hr, 20 mM HEPES pH 7.5, 200 mM NaCl, 0.1% IGEPAL; collected on GST beads, washed three times; densitometry of a Coomassie-stained gel; both purified
[2] = target: VAMP7 longin domain His6, the VAMP7 part of the chimeric protein (not stated (human or mouse cDNA cloned)) (UniProt P70280); assay: crystal structure; chimeric Hrb(136-176)/VAMP7 LDHis6, SIRAS, 2.2 Å, space group P2(1)2(1)2, four molecules in the asymmetric unit; both purified
[3] = target: VAMP7 longin domain L43S/Y45S, GST tag removed (mouse) (UniProt P70280); assay: ITC; VAMP7 longin domain (1.4 ml, 0.15-0.2 mM) in the cell, Hrb at 1.5-2 mM titrated in 30-40 injections of 4-8 μl; all GST tags removed; both purified
[4] = target: GST-VAMP7 longin domain (mouse) (UniProt P70280); assay: pull-down; GST-tagged bait with His6-tagged prey in PBS or 20 mM HEPES pH 7.5, 200 mM NaCl, 0.1% IGEPAL; 4°C, 1 hr; three washes; immunoblot with anti-His6; both purified
[5] = target: GST-VAMP7 whole cytoplasmic domain (I139S/M140S/I144S) triple mutant (not stated (human or mouse cDNA cloned)) (UniProt P51809); assay: as above
[6] = target: VAMP7 SNARE complex: GST-VAMP7(1-188), His6syntaxin4 (201-266) and SNAP23 (1-210) (not stated (human or mouse cDNA cloned) | not stated) (UniProt P51809+Q12846+O00161); assay: as above
[7] = target: T1, Sec22b longin domain (residues 1-127), yeast two-hybrid fusion (mouse) (UniProt O08547); assay: two-hybrid; directed test of GAL4 binding-domain and activation-domain fusions in diploid PJ69-4A; growth on medium lacking adenine; the Hrb DNA-binding-domain construct autoactivates
T1 sequence: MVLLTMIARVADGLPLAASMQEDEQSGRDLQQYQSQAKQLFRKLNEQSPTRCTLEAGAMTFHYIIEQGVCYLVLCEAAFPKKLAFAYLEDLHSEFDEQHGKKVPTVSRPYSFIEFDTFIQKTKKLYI

The chains behind the UniProt entries cited, without tags or fusion partners. Where a name states a change or a piece, a line headed by the entry shows the natural chain unless it says otherwise. A line that says so, or that is headed by a name, gives the form on record, which may keep a tag or linker. Residues count along the entry.
GST-VAMP7 full-length wild-type cytoplasmic domain (not stated (human or mouse cDNA cloned)) (P51809, residues 1-188): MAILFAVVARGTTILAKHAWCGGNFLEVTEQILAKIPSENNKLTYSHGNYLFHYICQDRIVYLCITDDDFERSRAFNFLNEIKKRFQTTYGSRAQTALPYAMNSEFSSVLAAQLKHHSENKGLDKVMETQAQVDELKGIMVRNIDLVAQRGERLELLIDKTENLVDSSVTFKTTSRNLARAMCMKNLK
GST-VAMP7 whole cytoplasmic domain (I139S/M140S/I144S) triple mutant (not stated (human or mouse cDNA cloned)) (P51809, form named): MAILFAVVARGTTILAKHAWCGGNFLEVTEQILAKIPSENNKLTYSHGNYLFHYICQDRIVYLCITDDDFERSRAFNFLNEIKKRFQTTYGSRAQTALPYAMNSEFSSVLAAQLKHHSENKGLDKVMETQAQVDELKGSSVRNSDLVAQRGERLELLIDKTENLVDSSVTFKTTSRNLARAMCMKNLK
VAMP7 longin domain, GST tag removed (P70280, residues 1-120): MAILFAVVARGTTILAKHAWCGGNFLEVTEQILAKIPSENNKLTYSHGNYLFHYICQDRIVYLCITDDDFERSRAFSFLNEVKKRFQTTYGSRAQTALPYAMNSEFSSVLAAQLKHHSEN
VAMP7 longin domain L43S/Y45S, GST tag removed (P70280, form named): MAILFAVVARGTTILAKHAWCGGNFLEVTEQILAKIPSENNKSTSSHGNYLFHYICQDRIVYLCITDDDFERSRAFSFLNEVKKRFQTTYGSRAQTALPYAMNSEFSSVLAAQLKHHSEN
UniProt Q12846, residues 201-266: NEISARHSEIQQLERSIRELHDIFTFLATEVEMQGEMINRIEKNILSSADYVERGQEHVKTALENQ

[8] = target: VAMP7 longin domain (1-120), yeast two-hybrid fusion (not stated (human or mouse cDNA cloned)) (UniProt P70280); assay: as above
[9] = target: T2, Ykt6 longin domain (residues 1-132), yeast two-hybrid fusion (mouse) (UniProt Q9CQW1); assay: as above
T2 sequence: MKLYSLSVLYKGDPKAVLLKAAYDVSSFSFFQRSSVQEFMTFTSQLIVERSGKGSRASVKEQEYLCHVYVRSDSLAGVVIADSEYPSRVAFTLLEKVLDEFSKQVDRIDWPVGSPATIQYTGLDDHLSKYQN

[10] = target: T3, GST-Sec22b longin domain (mouse) (UniProt O08547); assay: pull-down; GST-tagged bait on glutathione beads with A431 cell cytosol; 4°C, 1 hr; five washes with 0.1% IGEPAL; immunoblot with anti-Hrb; only the target purified
T3 sequence: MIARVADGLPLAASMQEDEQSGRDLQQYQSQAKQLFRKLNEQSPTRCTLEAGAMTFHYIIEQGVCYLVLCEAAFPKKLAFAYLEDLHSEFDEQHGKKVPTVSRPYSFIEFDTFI

[11] = target: GST-VAMP7 longin domain (mouse) (UniProt P70280); assay: as above
[12] = target: VAMP7 longin domain, GST tag removed (mouse) (UniProt P70280); assay: ITC; VAMP7 longin domain (1.4 ml, 0.15-0.2 mM) in the cell, Hrb at 1.5-2 mM titrated in 30-40 injections of 4-8 μl; all GST tags removed; both purified

Question: For “His6syntaxin4 (201-266) (from UniProt Q12846 201-266) (domain or fragment)”, which binding [1] is on record?
Answer: binds

Question: With VASVHASISGSSASSTSSTPEVKPLKSLLGDSAPTLHLNKG (domain or fragment, UniProt P52594-1 136-176) [Hrb(136-176), the Hrb part of the chimeric protein] as the molecule, how does the binding [2] read?
Answer: binds

B1: Hrb(1-176) His6 (domain or fragment, UniProt P52594-1 1-176)
chain: MAASAKRKQEEKHLKMLRDMTGLPHNRKCFDCDQRGPTYVNMTVGSFVCTSCSGSLRGLNPPHRVKSISMTTFTQQEIEFLQKHGNEVCKQIWLGLFDDRSSAIPDFRDPQKVKEFLQEKYEKKRWYVPPEQAKVVASVHASISGSSASSTSSTPEVKPLKSLLGDSAPTLHLNKG
Question: What does the source list for B1?
Answer: binding [3]: no binding (tested: >300 μM); binding [4]: binds; binding [5]: binds; binding [6]: binds

B2: SNAP23 (1-210) (protein, UniProt O00161 1-210)
chain: MDNLSSEEIQQRAHQITDESLESTRRILGLAIESQDAGIKTITMLDEQKEQLNRIEEGLDQINKDMRETEKTLTELNKCCGLCVCPCNRTKNFESGKAYKTTWGDGGENSPCNVVSKQPGPVTNGQLQQPTTGAASGGYIKRITNDAREDEMEENLTQVGSILGNLKDMALNIGNEIDAQNPQIKRITDKADTNRDRIDIANARAKKLID
Question: B2 was tested. Which binding [1] did it give?
Answer: binds

B3: full-length Hrb, yeast two-hybrid fusion (protein, UniProt P52594-1 1-562)
chain: MAASAKRKQEEKHLKMLRDMTGLPHNRKCFDCDQRGPTYVNMTVGSFVCTSCSGSLRGLNPPHRVKSISMTTFTQQEIEFLQKHGNEVCKQIWLGLFDDRSSAIPDFRDPQKVKEFLQEKYEKKRWYVPPEQAKVVASVHASISGSSASSTSSTPEVKPLKSLLGDSAPTLHLNKGTPSQSPVVGRSQGQQQEKKQFDLLSDLGSDIFAAPAPQSTATANFANFAHFNSHAAQNSANADFANFDAFGQSSGSSNFGGFPTASHSPFQPQTTGGSAASVNANFAHFDNFPKSSSADFGTFNTSQSHQTASAVSKVSTNKAGLQTADKYAALANLDNIFSAGQGGDQGSGFGTTGKAPVGSVVSVPSQSSASSDKYAALAELDSVFSSAATSSNAYTSTSNASSNVFGTVPVVASAQTQPASSSVPAPFGATPSTNPFVAAAGPSVASSTNPFQTNARGATAATFGTASMSMPTGFGTPAPYSLPTSFSGSFQQPAFPAQAAFPQQTAFSQQPNGAGFAAFGQTKPVVTPFGQVAAAGVSSNPFMTGAPTGQFPTGSSSTNPFL
Question: How did the binding [7] turn out when B3 was run?
Answer: no binding

Question: What about the binding [8] of the same molecule?
Answer: binds

Question: What about the binding [9] of the same molecule?
Answer: no binding

B4: endogenous Hrb from A431 cell cytosol (protein, UniProt P52594 1-562)
chain: MAASAKRKQEEKHLKMLRDMTGLPHNRKCFDCDQRGPTYVNMTVGSFVCTSCSGSLRGLNPPHRVKSISMTTFTQQEIEFLQKHGNEVCKQIWLGLFDDRSSAIPDFRDPQKVKEFLQEKYEKKRWYVPPEQAKVVASVHASISGSSASSTSSTPEVKPLKSLLGDSAPTLHLNKGTPSQSPVVGRSQGQQQEKKQFDLLSDLGSDIFAAPAPQSTATANFANFAHFNSHAAQNSANADFANFDAFGQSSGSSNFGGFPTASHSPFQPQTTGGSAASVNANFAHFDNFPKSSSADFGTFNTSQSHQTASAVSKVSTNKAGLQTADKYAALANLDNIFSAGQGGDQGSGFGTTGKAPVGSVVSVPSQSSASSDKYAALAELDSVFSSAATSSNAYTSTSNASSNVFGTVPVVASAQTQPASSSVPAPFGATPSTNPFVAAAGPSVASSTNPFQTNARGATAATFGTASMSMPTGFGTPAPYSLPTSFSGSFQQPAFPAQAAFPQQTAFSQQPNGAGFAAFGQTKPVVTPFGQVAAAGVSSNPFMTGAPTGQFPTGSSSTNPFL
Question: What does the source list for B4?
Answer: binding [10]: no binding; binding [11]: binds

B5: His6-tagged Hrb, bacterially expressed (protein, UniProt P52594-1 1-562)
chain: MAASAKRKQEEKHLKMLRDMTGLPHNRKCFDCDQRGPTYVNMTVGSFVCTSCSGSLRGLNPPHRVKSISMTTFTQQEIEFLQKHGNEVCKQIWLGLFDDRSSAIPDFRDPQKVKEFLQEKYEKKRWYVPPEQAKVVASVHASISGSSASSTSSTPEVKPLKSLLGDSAPTLHLNKGTPSQSPVVGRSQGQQQEKKQFDLLSDLGSDIFAAPAPQSTATANFANFAHFNSHAAQNSANADFANFDAFGQSSGSSNFGGFPTASHSPFQPQTTGGSAASVNANFAHFDNFPKSSSADFGTFNTSQSHQTASAVSKVSTNKAGLQTADKYAALANLDNIFSAGQGGDQGSGFGTTGKAPVGSVVSVPSQSSASSDKYAALAELDSVFSSAATSSNAYTSTSNASSNVFGTVPVVASAQTQPASSSVPAPFGATPSTNPFVAAAGPSVASSTNPFQTNARGATAATFGTASMSMPTGFGTPAPYSLPTSFSGSFQQPAFPAQAAFPQQTAFSQQPNGAGFAAFGQTKPVVTPFGQVAAAGVSSNPFMTGAPTGQFPTGSSSTNPFL
Question: Which binding [4] does the source give for B5 here?
Answer: binds

B6: Hrb(1-176) His6 L160S/L163S (domain or fragment, UniProt P52594-1 1-176)
chain: MAASAKRKQEEKHLKMLRDMTGLPHNRKCFDCDQRGPTYVNMTVGSFVCTSCSGSLRGLNPPHRVKSISMTTFTQQEIEFLQKHGNEVCKQIWLGLFDDRSSAIPDFRDPQKVKEFLQEKYEKKRWYVPPEQAKVVASVHASISGSSASSTSSTPEVKPSKSSLGDSAPTLHLNKG
Question: B6 was tested. Which binding [12] did it give?
Answer: no binding (tested: >300 μM)

B7: Hrb(1-176) His6 L163P/L164P (domain or fragment, UniProt P52594-1 1-176)
chain: MAASAKRKQEEKHLKMLRDMTGLPHNRKCFDCDQRGPTYVNMTVGSFVCTSCSGSLRGLNPPHRVKSISMTTFTQQEIEFLQKHGNEVCKQIWLGLFDDRSSAIPDFRDPQKVKEFLQEKYEKKRWYVPPEQAKVVASVHASISGSSASSTSSTPEVKPLKSPPGDSAPTLHLNKG
Question: B7 was tested. Which binding [12] did it give?
Answer: no binding (tested: >300 μM)

B8: Hrb(1-176) His6 L171S/L173S (domain or fragment, UniProt P52594-1 1-176)
chain: MAASAKRKQEEKHLKMLRDMTGLPHNRKCFDCDQRGPTYVNMTVGSFVCTSCSGSLRGLNPPHRVKSISMTTFTQQEIEFLQKHGNEVCKQIWLGLFDDRSSAIPDFRDPQKVKEFLQEKYEKKRWYVPPEQAKVVASVHASISGSSASSTSSTPEVKPLKSLLGDSAPTSHSNKG
Question: With B8 as the molecule, how does the binding [12] read?
Answer: no binding (tested: >300 μM)
